ChEMBL document CHEMBL1201862, “PubChem BioAssay data set” (2004)
Counter-ions that a name gives are not always drawn.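 Step 1: Grow cells in 96-well plates. Step 2: Expose to compound for 48 hours at 5 concentrations. Step 3: Interpolate endpoints linearly; if unreached, use highest concentration. The concentration for 50% growth inhibition is given as GI50.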 Active and inactive are the calls of the source. Rule as the data show it: active = GI50 up to about 1.1 µM and inactive = higher. Numbered stars: 1 amine (or outer) side, 2 acyl side, 3 side chain; on linkers, the order of the positions; unused ones are H or OH. Square brackets hold non-standard residues; d marks the D form. Peptide text beside a SMILES is read from it. * marks the point of attachment. ξ: configuration not given here. X22 = O=C([C@H]1CCC[C@H]1N[*:1])[*:2]; ξW = NC(Cc1c[nH]c2ccccc12)C(=O)O; ξF = NC(Cc1ccccc1)C(=O)O; Boc = CC(C)(C)OC(=O)*; Tfa = O=C(C(F)(F)F)*; ξK = NCCCCC(N)C(=O)O; ξT = CC(O)C(N)C(=O)O; tBu = CC(C)(C)*

System: NCI-H322M
Assay: growth of human tumour cells (NCI), 48 h

SMILES | GI50
CC(OC(C)(C)C)C1NC(=O)C(CCCCNC(=O)OC(C)(C)C)NC(=O)C(Cc2c[nH]c3ccccc23)NC(=O)C(Cc2ccccc2)NC(=O)[C@H]2CCC[C@H]2NC(=O)C(Cc2ccccc2)NC1=O (some centres undefined) (cyclo([X22][ξF][ξW][ξK](Boc)[ξT](tBu)[ξF])) | inactive: > 100 µM
COc1cc(OC)c(/C=N\Nc2nc3ccccc3c(=O)n2-c2ccccc2)c(OC)c1 | inactive: 23.5 µM
Cc1cc2c(cc1Cl)SC(NNCCO)=NS2(=O)=O | inactive: > 100 µM
C/C(=N\N=C(\N)OB(F)F)c1ccccn1 | inactive: > 100 µM
Cc1cc(NS(=O)(=O)c2ccc(Nc3c4ccccc4nc4c(C(=O)N5CCN(CCO)CC5)cccc34)cc2)no1 | inactive: > 100 µM
OCCOCn1nc(-c2ccccc2)nc1-c1cnccn1 | inactive: > 100 µM
COc1cc(C2c3cc4c(cc3[C@@H](Oc3ccc(F)cc3)C3COC(=O)[C@H]23)OCO4)cc(OC)c1O (some centres undefined) | inactive: > 41.3 µM
O=C(O)CC(NC(=O)C(F)(F)F)C(=O)NC(Cc1ccc(O)cc1)C(=O)O (stereo not drawn) (Tfa-Asp-Tyr-OH; configuration not given here) | inactive: > 50 µM
C1CNCCNCCN1 | inactive: > 100 µM
O=C1/C(=c2\s/c(=C\c3ccccc3)c(=O)n2-c2ccccc2)SC(=S)N1c1ccccc1 | inactive: 25.5 µM
COC(=O)c1ncc2c(=O)[nH]c3ccccc3c2c1C(=O)OC | inactive: > 100 µM
Cc1c(N2C(=O)CS(=O)(=O)C2c2cccc(Oc3ccccc3)c2)c(=O)n(-c2ccccc2)n1C (centres undefined) | inactive: 22.2 µM
CC(C)(C)c1cc(C(=O)Nc2cc(Br)c(Br)cc2S(N)(=O)=O)cc(C(C)(C)C)c1O | inactive: 12.5 µM
CCOc1ccc(NC(=O)C2=C(C)NC(C)=C(C(=O)Nc3ccc(OCC)cc3)C2c2ccc([N+](=O)[O-])cc2)cc1 | inactive: 66.1 µM
CC(C)Cc1cc(CCC(=O)Nc2ccccc2[N+](=O)[O-])nc(NC#N)n1 | inactive: > 100 µM
CC(=O)OCC12C(OC(C)=O)C(=O)C3C(OC(C)=O)C14OC3(C)COC(=O)c1cccnc1C(C)C(C)C(=O)OC(C(OC(C)=O)C2OC(C)=O)C4(C)O (centres undefined) | inactive: > 100 µM
COc1cccc(SSc2cccc(OC)c2C(=O)O)c1C(=O)O | inactive: > 100 µM
CC1Oc2c(c(O)cc3oc(=O)cc(-c4ccccc4)c23)C(=O)C1C (centres undefined) | inactive: > 100 µM
Cn1c2ccccc2c(=O)c2cccc(C(=O)NC(CCCNC(=N)N)C(=O)O)c21 (centres undefined) | inactive: > 100 µM
c1ccc2c(c1)ccn2CCc1c[nH]c2ccccc12 | inactive: > 10 µM
CC1=CCC(C(C)(C)NC(=O)c2ccccc2)C/C1=N/O (centres undefined) | inactive: > 100 µM
C/C(CCc1ccccc1)=N\NC(N)=S | inactive: > 100 µM
[O-][Cl+3]([O-])([O-])[O-].c1ccc(-c2[o+]c(-c3ccccc3)c(-c3ccccc3)c(-c3ccccc3)c2-c2ccccc2)cc1 | inactive: > 100 µM

SMILES | GI50
CCCCCCCCCCCC/C=C\CC[C@@H](O)[C@H](O)CC[C@H](O)[C@@H]1CC[C@@H](CCCCCCCC2=C[C@H](C)OC2=O)O1 [GIGANTRIONENIN] | inactive: 15.2 µM
O=C(/C=C/c1ccc(O)c(O)c1)NC(COC(=O)/C=C/c1ccc(O)c(O)c1)C(=O)O (centres undefined) | inactive: > 100 µM
CC(=O)N(CCc1ccccc1)C(C#N)c1ccccc1 (centres undefined) | inactive: > 100 µM
CCC/C(C)=N/NC(=S)SC.CCC/C(C)=N/NC(=S)SC.[Zn+2] | inactive: 6.53 µM
C=CC(c1ccccc1)[C@@]1(OC(C)=O)C(=O)C(=O)OC1C1COC(C)(C)O1 (some centres undefined) | inactive: 16.4 µM
N#CC(/C(CCCC(=O)Nc1cccc([N+](=O)[O-])c1)=N/NC(=O)c1cc2ccccc2cc1O)c1ccccc1 (centres undefined) | inactive: 29.7 µM
CCCCC(=O)c1c(O)ccc2c(C)cc(=O)oc12 | inactive: > 100 µM
Cc1[nH]c(=O)c2oc3cc4ccccc4cc3c2c1C(=O)O | inactive: > 10 µM
O=C(O)CN(CC(=O)O)Cc1ccn(-c2cccc(-n3ccc(CN(CC(=O)O)CC(=O)O)n3)n2)n1 | inactive: > 100 µM
COc1ccc(C(=O)N/N=C2\C(=O)c3c(C)cc(C)cc3CC2(C)C)cc1 | inactive: 31.3 µM
CC(=O)Nc1nc2c(=O)c3ccccc3sc2s1 | inactive: > 100 µM
N#CC(NNC(=O)Cc1ccccc1)c1ccc(O)cc1 (centres undefined) | inactive: > 100 µM
N#C/C(=C/NC(=S)c1ccncc1)C(N)=O | inactive: > 100 µM
COc1cc(S(=O)(=O)Nc2ccc(-c3csc(N4C(=O)CSC4c4ccccc4O)n3)cc2)ccc1Cl (centres undefined) | inactive: 54.2 µM
CN(C)CCCNc1c2c(nc3ccc(Cl)cc13)CCCC2 | inactive: 11.2 µM
COc1ccc(/C=C2\Sc3nnc(CNc4ccc(Cl)cc4)n3N=C2c2cc(F)c(Cl)cc2Cl)cc1OC | inactive: > 100 µM
CCOC(=O)NC(=O)c1cn(CCOC(=O)NCCCCCCNC(=O)OCCn2cc(C(=O)NC(=O)OCC)c(=O)[nH]c2=O)c(=O)[nH]c1=O | inactive: > 100 µM
CCCCCCCCCCCCN1[C@H]2CCC[C@H]2C(O)[C@@H]2CCC[C@@H]21 (some centres undefined) | inactive: > 100 µM
C/C(N)=[N+](/C)[O-] | inactive: > 100 µM
CC(=O)OCC(OC(C)=O)C(OC(C)=O)C(OC(C)=O)C(C=NN(C(C)=O)S(=O)(=O)c1ccc(/C=C2\NC(=O)N(C)C2=O)cc1)OC(C)=O (centres undefined) | inactive: 35.8 µM
O=c1c2ccccc2c2c1c1c3ccccc3c(=O)c1c1c3ccccc3c(=O)c21 | inactive: > 100 µM
NC(=O)c1ccccc1NC(=O)C(=O)C(C(=O)c1ccc2ccccc2c1)C1OC(=O)c2ccccc21 (centres undefined) | inactive: 7.6 µM
CCOC(OC1=C(C#N)CCC1)C(CC)[Se]c1ccccc1 (centres undefined) | inactive: > 100 µM

SMILES | GI50
O=C(Nc1sccc1S(=O)(=O)c1ccc(Cl)cc1)c1ccccc1 | inactive: > 100 µM
O=C(O)c1ccccc1SCc1cccc2c(=O)c3ccc(Cl)cc3oc12 | inactive: > 50 µM
COc1ccc(/N=C\c2ccc(N(CCC#N)CCC#N)cc2)cc1 | inactive: > 75.5 µM
COc1ccc(/C=C/c2cc(OC)cc(OC)c2)cc1 [TRISMETHOXYRESVERATROL] | inactive: 6.49 µM
O=C(O)CSc1nnc(-c2ccccc2O)[nH]1 | inactive: > 100 µM
[N-]=[N+]=NC1(c2ccccc2)C(=O)c2cccc3c4ccccc4n(c23)C1=O (centres undefined) | inactive: > 100 µM
Cc1cc(NS(=O)(=O)c2ccc(NC(=O)c3cccn4c(=O)c5ccccc5nc34)cc2)no1 | inactive: > 100 µM
Cc1c(OCc2cccc3ccccc23)ccc2c(=O)cc(SCCN3CCOCC3)oc12 | inactive: > 100 µM
CC1=C(CO)C2=C(C)C3(CC3)[C@@](C)(O)C(=O)C2=C1 [IROFULVEN] | active: 0.226 µM
Nc1nc(Cl)cc(NCC2(CO)CCC(O)C2)n1 (centres undefined) | inactive: > 100 µM
CC(C)(C)NC(=S)N/N=C/c1ccccn1 | active: 0.237 µM
[O-][n+]1cc(SCc2ccccc2)ncc1SCc1ccccc1 | inactive: > 10 µM
COC(=O)C(Cc1c[nH]c2ccccc12)NP(=O)(O)OCC1OC(n2cc(I)c(=O)[nH]c2=O)CC1O (centres undefined) | inactive: > 100 µM
CC(C)[Si](OC1=C(c2ccccc2)C(NC(=O)/C=C/c2ccc([N+](=O)[O-])cc2)CCC1)(C(C)C)C(C)C (centres undefined) | inactive: > 100 µM
COc1ccc2c3c1OC1C(=O)C=CC4(CC2)N(C)CCC314 (centres undefined) | inactive: 22.9 µM
c1cc2nnc1SCCSCCSc1ccc(nn1)SCCSCCS2 | inactive: > 100 µM
COc1ccc2c(c1)C(=O)CCc1cc(OC)c(OC)c(OC)c1-2 | active: 0.0533 µM
CC(Nc1ccc(Cl)c(Cl)c1)c1ccncc1 (centres undefined) | inactive: 2.21 µM
O=C1CCCC[C@H]1C(O)CC1CC(=O)N(c2ccccc2)C(=O)C1 (some centres undefined) | inactive: > 100 µM
Cn1c(NN)nc(-c2ccc([N+](=O)[O-])cc2)c(C#N)c1=O | inactive: 14.3 µM
CC(C)CC(=O)NS(=O)(=O)c1ccccc1 | inactive: > 100 µM
COc1cc(/C=C/C(=O)c2sc(-n3nc(-c4ccccc4)cc3-c3ccccc3)nc2C)ccc1O | inactive: 72.3 µM
O=C1c2ccccc2C(=O)N1CCN(CCN1C(=O)c2ccccc2C1=O)Cc1ccccc1 | inactive: > 100 µM

SMILES | GI50
O=C(c1ccccc1Br)C(F)(F)F | inactive: > 100 µM
COc1ccc(NC(=O)CSC(=O)c2ccccc2)c(SCCSSCCSc2cc(OC)ccc2NC(=O)CSC(=O)c2ccccc2)c1 | inactive: 24.5 µM
Cn1cnc([N+](=O)[O-])c1Sc1nnnn1C | inactive: 48.9 µM
CC(C)(C)n1c(=O)[nH]n(C2NN=Cc3cccc4cccc2c34)c1=O (centres undefined) | inactive: 40.8 µM
O=C1CC(C[C@H](O)C2CCCCC2O)CC(=O)N1Cc1ccccc1 (some centres undefined) | inactive: > 100 µM
O=C(CCCCCCC(=O)Nc1cccnc1)NO [PYROXAMIDE] | inactive: 3.1 µM
COc1cccc(/C=C\c2cc(OC)c(OC)c(OC)c2)c1 | inactive: 1.68 µM
COc1cc(/C=C2\C(=O)N(c3cccc([N+](=O)[O-])c3)C(c3ccccc3)S2(=O)=O)cc(OC)c1OC (centres undefined) | inactive: > 100 µM
Cc1nc2ccc(C(F)(F)F)cc2nc1NCc1ccc(Cl)c(Cl)c1 | inactive: 15.9 µM
CCOC(=O)c1ccc(Nc2nc3cc(C(F)(F)F)ccc3nc2C(=O)OCC)cc1 | inactive: 76.7 µM
CCCCCCC(C)OC(=O)/C=C(\CC(=O)OC(C)CCCCCC)C(=O)OC(C)CCCCCC (centres undefined) | inactive: > 100 µM
N#CCC(=O)N/N=C1/C(=O)N(c2ccc(Cl)cc2)C(=O)C(=O)C1c1nc2ccccc2s1 (centres undefined) | inactive: 36.7 µM
N=C(c1ccccc1)N1CCCCC1 | inactive: > 100 µM
N#CC1=C(N)N(c2ccccc2)C(c2ccccc2)C1(C#N)C#N (centres undefined) | inactive: 19.7 µM
CC(=O)Oc1ccc2ccc(=O)oc2c1OC(C)=O | inactive: 54.1 µM
NCCNCC1CCNCC1 | inactive: > 100 µM
NC1(C(=O)O)CCCC1 [CYCLOLEUCINE] | inactive: > 248 µM
CC(=O)N1N=C(c2ccc3ccccc3c2O)CC1C(=O)c1ccco1 (centres undefined) | inactive: 30.1 µM
Nc1ccc2c(c1)C(=O)N(OS(=O)(=O)c1ccccc1)C2=O | inactive: > 100 µM
O=C(/C=C\c1ccc(Cl)cc1Cl)c1cccs1 | inactive: 33.2 µM
